# According to the supplement of paper PMC8728848:
# This is one part of the list.
# B1: PX9961U-pdi-543-24-543 (Parabacteroides distasonis) (protein)
# chain: EEPVGEFLPGQVESEENIEGIVTGAYAVLDGYYASDAINSGCSNWQFGDVVSDDAYKGGGGTGDQNQIHLMEIFNANPTGIDFEARWAALYEGIKRCNQAIRLLNGSEVKNKEQRLAEMRFLRGHYYFNLKIIYNQIPWIDETLVDPNEYNKKSNIEFSSDQLWEKILEEFSAAYKVLPESQADYGRPTKMAARAYMAKVYLYQSKWKECLEACDEVIQSGKYELFPDFRNVFLPENDNCSEIIFAIQLSINDGSPNNENGSYGDRLLPPGGPYPVYGFLRPTQNLVNAYKTDVKGLPYNDGKDVSENDYVDVRLDHTLARPNIPFMDVQLYDWTPREASVYGPYSPKKRLVSLNSTYYSPIWPYVNALNFYVIRYADLLLWRAEAAIETGDLETGRKYINMIRERAKNTQHVKTMDQSQDAANYKVGVYDEPFKSKNEAVQALRMERRLEMAHEGIRFFDLVRWGVADEVINAYIAKEKVFRSHLQNAHFVKGKHEYFPIPQSMIDICGTEVMKQNPGY
# Columns and labels:
# Assay in all cases: glycan array binding signal (z-score within array); higher = stronger binding
# Conditions in all cases: glycan notation: IUPAC condensed, linker removed
# [1] = molecular target: GalNAc(b1-4)GlcNAc(b1-2)Man
# Method in brief: (§1)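 The binding signal is a Z-score computed within each array and averaged over linkers. Arrays of the same protein sequence at different concentrations or buffers were also averaged together. Data originate from 3228 arrays in the Consortium for Functional Glycomics database, kept only where the protein sequence was available.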
# [2] = molecular target: GalNAc(b1-4)GlcNAc(b1-2)Man(a1-3)[GalNAc(b1-4)GlcNAc(b1-2)Man(a1-6)]Man(b1-4)GlcNAc(b1-4)GlcNAc
# Method in brief: as §1
# [3] = molecular target: GalNAc(b1-4)GlcNAc(b1-3)GalNAc(b1-4)GlcNAc
# Method in brief: as §1
# GalNAc(b1-4)GlcNAc6S = molecular target: GalNAc(b1-4)GlcNAc6S
# Method in brief: as §1
# GalNAc(b1-6)GalNAc = molecular target: GalNAc(b1-6)GalNAc
# Method in brief: as §1
# GalNAc3S(b1-4)GlcNAc = molecular target: GalNAc3S(b1-4)GlcNAc
# Method in brief: as §1
# GalNAc3S(b1-4)GlcNAc3S = molecular target: GalNAc3S(b1-4)GlcNAc3S
# Method in brief: as §1
# [4] = molecular target: GalNAc3S(b1-4)[Fuc(a1-3)]GlcNAc
# Method in brief: as §1
# GalNAc4S6S(b1-4)GlcNAc = molecular target: GalNAc4S6S(b1-4)GlcNAc
# Method in brief: as §1
# GalNAc6S(b1-4)GlcNAc = molecular target: GalNAc6S(b1-4)GlcNAc
# Method in brief: as §1
# Glc(a1-4)Glc = molecular target: Glc(a1-4)Glc
# Method in brief: as §1
# [5] = molecular target: Glc(a1-4)Glc(a1-4)Glc(a1-4)Glc
# Method in brief: as §1
# Glc(a1-6)Glc(a1-6)Glc = molecular target: Glc(a1-6)Glc(a1-6)Glc
# Method in brief: as §1
# [6] = molecular target: Glc(a1-6)Glc(a1-6)Glc(a1-6)Glc
# Method in brief: as §1
# Glc(b1-4)Glc = molecular target: Glc(b1-4)Glc
# Method in brief: as §1
# Glc(b1-6)Glc = molecular target: Glc(b1-6)Glc
# Method in brief: as §1
# GlcA(b1-3)Gal = molecular target: GlcA(b1-3)Gal
# Method in brief: as §1
# GlcA(b1-3)GlcNAc = molecular target: GlcA(b1-3)GlcNAc
# Method in brief: as §1
# GlcA(b1-6)Gal = molecular target: GlcA(b1-6)Gal
# Method in brief: as §1
# [7] = molecular target: GlcA3S(b1-3)Gal(b1-4)GlcNAc(b1-2)Man
# Method in brief: as §1
# [8] = molecular target: GlcA3S(b1-3)Gal(b1-4)GlcNAc(b1-3)Gal(b1-4)Glc
# Method in brief: as §1
# [9] = molecular target: GlcNAc(a1-3)Gal(b1-4)GlcNAc
# Method in brief: as §1
# [10] = molecular target: GlcNAc(a1-4)Gal(b1-3)GlcNAc
# Method in brief: as §1
# [11] = molecular target: GlcNAc(a1-4)Gal(b1-4)GalNAc
# Method in brief: as §1
# [12] = molecular target: GlcNAc(a1-4)Gal(b1-4)GlcNAc
# Method in brief: as §1
# [13] = molecular target: GlcNAc(a1-4)Gal(b1-4)GlcNAc(b1-3)Gal(b1-4)Glc
# Method in brief: as §1
# [14] = molecular target: GlcNAc(a1-4)Gal(b1-4)GlcNAc(b1-3)Gal(b1-4)GlcNAc
# Method in brief: as §1
# [15] = molecular target: GlcNAc(a1-4)Gal(b1-4)GlcNAc(b1-3)Gal(b1-4)GlcNAc(b1-3)Gal(b1-4)GlcNAc
# Method in brief: as §1
# [16] = molecular target: GlcNAc(a1-4)Gal(b1-4)GlcNAc(b1-3)Gal(b1-4)[Fuc(a1-3)]GlcNAc(b1-3)Gal(b1-4)[Fuc(a1-3)]GlcNAc
# Method in brief: as §1
# [17] = molecular target: GlcNAc(a1-6)Gal(b1-4)GlcNAc
# Method in brief: as §1
# [18] = molecular target: GlcNAc(b1-2)Gal(b1-3)GalNAc
# Method in brief: as §1
# [19] = molecular target: GlcNAc(b1-2)Man(a1-3)[GlcNAc(b1-2)Man(a1-6)]Man(b1-4)GlcNAc(b1-4)GlcNAc
# Method in brief: as §1
# [20] = molecular target: GlcNAc(b1-2)Man(a1-3)[GlcNAc(b1-2)Man(a1-6)]Man(b1-4)GlcNAc(b1-4)[Fuc(a1-6)]GlcNAc
# Method in brief: as §1
# [21] = molecular target: GlcNAc(b1-2)Man(a1-3)[GlcNAc(b1-4)][GlcNAc(b1-2)Man(a1-6)]Man(b1-4)GlcNAc(b1-4)GlcNAc
# Method in brief: as §1
# [22] = molecular target: GlcNAc(b1-2)Man(a1-3)[GlcNAc(b1-4)][GlcNAc(b1-2)Man(a1-6)]Man(b1-4)GlcNAc(b1-4)[Fuc(a1-6)]GlcNAc
# Method in brief: as §1
# [23] = molecular target: GlcNAc(b1-2)[GlcNAc(b1-4)]Man(a1-3)[GlcNAc(b1-2)Man(a1-6)]Man(b1-4)GlcNAc(b1-4)GlcNAc
# Method in brief: as §1
# [24] = molecular target: GlcNAc(b1-2)[GlcNAc(b1-4)]Man(a1-3)[GlcNAc(b1-4)][GlcNAc(b1-2)Man(a1-6)]Man(b1-4)GlcNAc(b1-4)GlcNAc
# Method in brief: as §1
binder,measurement,setting,value
B1,glycan array binding signal (z-score),[1],-0.203
same,glycan array binding signal (z-score),[2],-0.253
same,glycan array binding signal (z-score),[3],0.352
same,glycan array binding signal (z-score),GalNAc(b1-4)GlcNAc6S,-0.343
same,glycan array binding signal (z-score),GalNAc(b1-6)GalNAc,-0.394
same,glycan array binding signal (z-score),GalNAc3S(b1-4)GlcNAc,-0.449
same,glycan array binding signal (z-score),GalNAc3S(b1-4)GlcNAc3S,-0.323
same,glycan array binding signal (z-score),[4],-0.27
same,glycan array binding signal (z-score),GalNAc4S6S(b1-4)GlcNAc,-0.413
same,glycan array binding signal (z-score),GalNAc6S(b1-4)GlcNAc,-0.414
same,glycan array binding signal (z-score),Glc(a1-4)Glc,-0.329
same,glycan array binding signal (z-score),[5],-0.168
same,glycan array binding signal (z-score),Glc(a1-6)Glc(a1-6)Glc,-0.457
same,glycan array binding signal (z-score),[6],-0.362
same,glycan array binding signal (z-score),Glc(b1-4)Glc,-0.407
same,glycan array binding signal (z-score),Glc(b1-6)Glc,-0.334
same,glycan array binding signal (z-score),GlcA(b1-3)Gal,-0.393
same,glycan array binding signal (z-score),GlcA(b1-3)GlcNAc,-0.535
same,glycan array binding signal (z-score),GlcA(b1-6)Gal,0.656
same,glycan array binding signal (z-score),[7],-0.428
same,glycan array binding signal (z-score),[8],-0.414
same,glycan array binding signal (z-score),[9],-0.303
same,glycan array binding signal (z-score),[10],-0.408
same,glycan array binding signal (z-score),[11],-0.384
same,glycan array binding signal (z-score),[12],-0.445
same,glycan array binding signal (z-score),[13],-0.313
same,glycan array binding signal (z-score),[14],-0.342
same,glycan array binding signal (z-score),[15],-0.46
same,glycan array binding signal (z-score),[16],1.56
same,glycan array binding signal (z-score),[17],0.541
same,glycan array binding signal (z-score),[18],-0.479
same,glycan array binding signal (z-score),[19],-0.369
same,glycan array binding signal (z-score),[20],-0.208
same,glycan array binding signal (z-score),[21],-0.333
same,glycan array binding signal (z-score),[22],-0.452
same,glycan array binding signal (z-score),[23],-0.415
same,glycan array binding signal (z-score),[24],-0.449
